In PubChem BioAssay (Tox21):
Values joined by “and” are separate entries in the source; they are usually repeats but may differ in a detail not shown here. Equal values may be shown once. Inconclusive results, whose numbers are uncertain, are shown with a selection of clear calls. No potency is given beside an inconclusive call; the fits are too rough. Active and inactive are the calls of the source. Calls follow the shape of the dose curve; as a rule, active = well fitted cell-killing curve with a large enough effect in the repeat runs; inconclusive = weak or mixed curves, or effect the other way; inactive = flat fitted curve, though single readings scatter.

assay: qHTS RealTime-Glo MT Cell Viability Assay in HEK293 cells - 40 hour (AID 1224874); conditions: RealTime-Glo luminescence; max response: stronger effect = lower value; also: nearly all actives have a fitted effect of over 50% in size
Excerpt: U.S. Tox21 Program National Center for Advancing Translational Sciences [NCATS] NIH Chemical Genomics Center [NCGC] U.S. Environmental Protection Agency [EPA] National Institutes of Environmental Health Sciences [NIEHS] National Toxicology Program [NTP] U.S. Food and Drug Administration [FDA] Tox21 Assay Overview: Measure of cell viability is critical in the cell-base assay. Analysis of cell viability is necessary for the characterization of cell responses to cytotoxic drugs and environmental stress. A RealTime-Glo MT Cell Viability Assay to monitor cell viability in real time of continues cell culture during 40 hours of compound treatment was used to screen Tox21 10K library compounds in Hek293 cells. The RealTime-Glo MT Cell Viability Assay is a nonlytic, homogeneous, bioluminescent method to measure cell viability in real time using a simple, plate-based method. The assay involves adding NanoLuc luciferase and a cell-permeant prosubstrate to cells in culture. Viable cells reduce the proprietary prosubstrate to generate a substrate for NanoLuc luciferase. This substrate diffuses from cells into the surrounding culture medium, where it is rapidly used by the NanoLuc Enzyme to produce a luminescent signal. The signal correlates with the number of viable cells, making the assay well suited for cytotoxicity studies.
Tox21 Assay Protocol Summary: The mixture of Hek293 cell suspension and reagents were dispensed at 600cells/6 ul/well in 1536-well tissue culture treated black solid bottom plates using a Multidrop dispenser. After the assay plates were incubated at a 37 C/5% CO2 incubator for 5 hours, 23 nL of compounds dissolved in DMSO, positive and negative controls was transferred to the assay plate by a pintool work station. The plates were incubated at 37 C for 40 hours. The luminescence intensity were measured at 0h, 8h, 16h, 24h, 32h and 40h time points using ViewLux plate reader during compound treatment.
% is scaled to controls: 0 for no effect and ±100 for the full control effect; potency is read from the fitted curve at half-maximal effect; tags tell the direction and shape of the fitted curve.

SMILES | Potency | max response
CC[C@@H]([C@H](C)O)n1ncn(-c2ccc(N3CCN(c4ccc(OC[C@@H]5CO[C@@](Cn6cncn6)(c6ccc(F)cc6F)C5)cc4)CC3)cc2)c1=O | active: 5.35 µM | –
CCCCCCCCN1CCCC1=O | – | inactive: -3.59%
Nc1nc(Cl)nc2c1ncn2[C@@H]1O[C@H](CO)[C@@H](O)[C@@H]1F | active: 4.25 µM | –
CCCCCCCCCCCCCCCO | inconclusive [cytotoxic, single point] | –
O=C1NCCN1CCO | – | inactive: 15.9%
Cc1ccc(C(C)(C)C)cc1 | inconclusive [cytotoxic, partial curve, poor fit] | –
CCCCN(CCCC)C(=S)SSC(=S)N(CCCC)CCCC | active: 38.5 µM | –
CC(=O)OC(C)C | – | inactive: -9.76% and inactive: -7.44%
Cc1nc(N)nc(N)c1-c1ccc(Cl)c(Cl)c1 | active: 1.07 µM | –
CCC(C)COC(=O)CC(C)C (stereo not given) | inconclusive [cytotoxic, single point] | –
COc1ccc2c(c1OC)C(=O)O[C@@H]2[C@H]1c2c(cc3c(c2OC)OCO3)CCN1C | inconclusive [cytotoxic, partial curve] | –
COc1ccc(C(=O)c2ccccc2O)c(O)c1 | inconclusive [cytotoxic, partial curve] | –
Cc1ccc2nc(N)[nH]c(=O)c2c1Sc1ccncc1 | inconclusive [cytotoxic, full curve] | –
CC(C)(C)c1ccc(OC2CCCCC2O)cc1 (stereo not given) | inconclusive [cytotoxic, single point] | –
CCN(CC)CCNC(=O)c1ccc(NC(C)=O)cc1 | – | inactive: -0.786%
Oc1ccc2c(c1)-c1ccccc1C2 | inconclusive [cytotoxic, partial curve, poor fit] | –
CC(C)Cc1ccc(C(C)C(=O)OCc2ccccn2)cc1 (stereo not given) | inconclusive [cytotoxic, partial curve] | –
O=C1NC(=O)[C@@H]2CC=CC[C@H]12 | inconclusive [cytotoxic, partial curve] | –
CC(C)[C@@H]1CC[C@@H](C)C[C@H]1O | – | inactive: 3.82% [middle of 5 runs]
CCCCCCCC/C=C\CCCCCCCCN | inconclusive [cytotoxic, single point] | –

SMILES | Potency | max response
CN1Cc2cc(C(=O)N3CCC(C4CCNCC4)CC3)ccc2N[C@@H](CC(=O)O)C1=O | – | inactive: 0.441%
C(=C\c1ccccc1)/CN1CCN(C(c2ccccc2)c2ccccc2)CC1 | inconclusive [cytotoxic, single point] | –
O=C1CCc2cc(OCCCCc3nnnn3C3CCCCC3)ccc2N1 | inconclusive [cytotoxic, partial curve] | –
CC(=O)Nc1ccc2c(c1)Cc1cc(NC(C)=O)ccc1-2 | – | inactive: 1.79% and inactive: 3.64%
O=C1N=C(O)CN1/N=C/c1ccc(-c2ccc([N+](=O)[O-])cc2)o1 | inconclusive [cytotoxic, partial curve] | –
Cc1cc(C)c(S(=O)(=O)O)cc1N=Nc1cc(S(=O)(=O)O)c2ccccc2c1O | inconclusive [cytotoxic, partial curve] | –
CCCCC(CC)COC(=O)C(C#N)=C(c1ccccc1)c1ccccc1 (stereo not given) | inconclusive [cytotoxic, partial curve] | inactive: -27.4%
CC(C)COC(=O)c1ccc(O)cc1 | inconclusive [cytotoxic, single point] | –
c1ccc2c(c1)ccc1ncccc12 | – | inactive: -12% and inactive: -17.1%
COc1cc(NCc2ccc3nc(N)nc(N)c3c2C)cc(OC)c1OC | active: 0.0239 µM | –
CCOC(=O)C1=C(C)NC(C)=C(C(=O)OC)C1c1cccc([N+](=O)[O-])c1 (stereo not given) | inconclusive [cytotoxic, single point] | –
O=C(O)CN(CCN(CC(=O)O)CC(=O)O)CC(=O)O | – | inactive: 7.27%
O=S(=O)(c1ccc(OCc2ccccc2)cc1)c1ccccc1O | active: 19.5 µM | –
COc1ccc(/C=C/C(=O)c2ccc(OC)cc2OC)cc1 | inconclusive [cytotoxic, single point] | –
Cc1cc(O)cc(C)c1Cl | – | inactive: -8.32% and inactive: -0.996%
Cc1cc(CCCOc2c(C)cc(-c3noc(C(F)(F)F)n3)cc2C)on1 | inconclusive [cytotoxic, partial curve] | –
O=C1O[C@H](CO)[C@@H](O)[C@H](O)[C@H]1O | – | inactive: 1.84% and inactive: 0.71%
O=C(/C=C/c1ccc([N+](=O)[O-])cc1)c1ccccc1 | active: 24.6 µM | –
Cc1ccc(C(=O)Oc2ccc(C(O)CNC(C)(C)C)cc2OC(=O)c2ccc(C)cc2)cc1 (stereo not given) | inconclusive [cytotoxic, single point] | –
